Experimental data as given in the supplement of paper PMC7826260.
The other results are listed elsewhere or left out. Cleavage of a single-stranded DNA pool by Rep nickase domains was read by sequencing (3 µM enzyme, 1 h, 37 °C); shown is the middle of each 90-letter strand. A value is the log2 ratio of uncut reads to the pool without enzyme; more negative means more cut, near 0 not cut, and no call is made. Shares of all reads are compared; where an enzyme cuts many sequences, the uncut ones exceed 0.

Experiments:
Assay in all cases: uncleaved DNA left, log2 of reads against the no-enzyme library (log2 ratio); higher = less cleavage (more negative = more Rep cleavage of the k-mer); sequences stand for … in CTCGTCCG…ACCGGAGA
[1] = test system: T1, Rep nickase domain of Muscovy duck circovirus
T1 sequence (protein, residues 1-111, tag omitted): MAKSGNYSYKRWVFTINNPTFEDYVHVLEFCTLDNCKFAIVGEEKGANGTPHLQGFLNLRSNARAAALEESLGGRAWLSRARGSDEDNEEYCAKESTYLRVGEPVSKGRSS
Procedure: (§1)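 A pool of 90-nt single-stranded DNAs with seven random bases just before the constant AC of the nick site (name = the seven bases) was cut by 3 µM recombinant His6-SUMO-tagged Rep nickase domain (300 nM DNA, 50 mM HEPES pH 8.0, 50 mM NaCl, 1 mM MnCl2, 1 h, 37 °C, three replicates). Uncut DNA was amplified and sequenced.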

[2] = test system: T2, Rep nickase domain of banana bunchy top virus
T2 sequence (protein, residues 1-94, tag omitted): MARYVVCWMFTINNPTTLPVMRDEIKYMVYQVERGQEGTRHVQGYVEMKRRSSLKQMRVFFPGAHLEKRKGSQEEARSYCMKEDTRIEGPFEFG
Procedure: as §1

[3] = test system: T3, Rep nickase domain of cabbage leaf curl virus
T3 sequence (protein, residues 1-116, tag omitted): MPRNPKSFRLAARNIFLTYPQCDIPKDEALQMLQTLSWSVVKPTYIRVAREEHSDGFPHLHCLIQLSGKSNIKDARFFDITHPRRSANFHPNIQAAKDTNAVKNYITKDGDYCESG
Procedure: as §1

[4] = test system: T4, Rep nickase domain of chickpea chlorotic dwarf virus
T4 sequence (protein, residues 1-124, tag omitted): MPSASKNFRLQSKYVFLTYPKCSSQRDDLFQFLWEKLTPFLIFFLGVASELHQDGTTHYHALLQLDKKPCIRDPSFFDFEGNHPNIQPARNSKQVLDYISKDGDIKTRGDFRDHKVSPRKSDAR
Procedure: as §1

[5] = test system: T5, Rep nickase domain of faba bean necrotic yellows virus
T5 sequence (protein, residues 1-98, tag omitted): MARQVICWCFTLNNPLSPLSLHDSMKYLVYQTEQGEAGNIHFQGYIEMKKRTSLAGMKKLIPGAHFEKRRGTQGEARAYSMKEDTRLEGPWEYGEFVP
Procedure: as §1

[6] = test system: T6, Rep nickase domain of maize striate mosaic virus
T6 sequence (protein, residues 1-117, tag omitted): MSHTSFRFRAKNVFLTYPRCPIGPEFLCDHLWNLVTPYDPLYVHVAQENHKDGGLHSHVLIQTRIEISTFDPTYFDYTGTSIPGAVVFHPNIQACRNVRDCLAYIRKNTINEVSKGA
Procedure: as §1

[7] = test system: T7, Rep nickase domain of porcine circovirus 2
T7 sequence (protein, residues 2-116, tag omitted): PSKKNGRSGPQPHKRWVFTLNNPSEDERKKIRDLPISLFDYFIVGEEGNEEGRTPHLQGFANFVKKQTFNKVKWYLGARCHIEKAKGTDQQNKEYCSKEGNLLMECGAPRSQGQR
Procedure: as §1

[8] = test system: T8, Rep nickase domain of tomato yellow leaf curl virus
T8 sequence (protein, residues 1-136, tag omitted): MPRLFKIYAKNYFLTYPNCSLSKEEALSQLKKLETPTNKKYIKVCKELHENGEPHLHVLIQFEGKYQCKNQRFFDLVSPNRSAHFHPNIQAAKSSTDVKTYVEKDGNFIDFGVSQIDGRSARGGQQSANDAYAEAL
Procedure: as §1

[9] = test system: T9, Rep nickase domain of wheat dwarf virus
T9 sequence (protein, residues 1-137, tag omitted): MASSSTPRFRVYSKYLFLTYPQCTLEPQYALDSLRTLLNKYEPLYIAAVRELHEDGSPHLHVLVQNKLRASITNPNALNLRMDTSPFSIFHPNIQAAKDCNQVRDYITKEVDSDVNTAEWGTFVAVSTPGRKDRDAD
Procedure: as §1

Sequence	uncleaved DNA left (log2) [1]	uncleaved DNA left (log2) [2]	uncleaved DNA left (log2) [3]	uncleaved DNA left (log2) [4]	uncleaved DNA left (log2) [5]	uncleaved DNA left (log2) [6]	uncleaved DNA left (log2) [7]	uncleaved DNA left (log2) [8]	uncleaved DNA left (log2) [9]
TCTGGGG	0.0458	-0.202	0.232	0.293	-0.155	0.111	0.187	-0.0222	-0.0391
AACGGTG	0.00796	-0.0398	-0.157	-0.0567	-0.0274	-0.333	0.131	-0.124	-0.0768
AAAAGAC	0.0437	0.00402	0.147	0.38	-0.0392	-0.208	0.0804	-0.0435	-0.0319
ATGCCAT	-0.0637	-0.0639	-0.0557	-0.197	-0.018	-0.266	-0.0669	0.0255	-0.0695
AGGCCGA	-0.0541	-0.0546	0.00707	0.134	-0.00337	-0.34	-0.000412	-0.15	-0.0481
ATGATCT	0.0103	-0.0221	-0.0138	-1.69	-0.0393	-0.191	-0.364	-0.0113	0.0199
ACCGCGA	0.154	0.0911	-0.157	0.818	0.177	0.228	0.222	0.109	0.0333
AGACGTC	0.13	0.00455	0.718	1.18	0.104	1.11	0.121	0.0398	0.132
CAGATGA	0.0848	-0.0342	0.00451	0.324	-0.129	0.273	-0.0166	-0.122	-0.0101
TCAAGCC	-0.0819	-0.118	-0.417	-1.2	-0.0481	-0.543	0.154	-0.0914	-0.0814
TTCAGTG	0.00844	-0.0379	-0.597	-0.763	0.0794	-1.21	0.0849	0.0412	-0.159
TCCCCGC	0.0218	-0.0553	-0.274	-0.717	-0.14	-0.575	-0.0505	-0.0228	-0.0573
CCCAAGG	-0.0511	-0.03	0.36	1.11	0.0285	0.895	0.062	-0.194	0.072
ACAGTGT	0.013	-0.0721	-0.657	-0.955	-0.0119	-0.912	0.0361	-0.0413	-0.123
TCAGCCA	-0.0145	0.00334	0.0254	-1.2	-0.0995	-0.784	-0.164	-0.0329	-0.069
CTTGCGG	-0.00558	-0.0019	0.354	1.34	-0.0782	1.48	0.117	-0.137	0.0377
ACTCTGG	0.0785	-0.0792	-0.591	-0.674	-0.15	-1.04	0.165	-0.012	-0.145
ACCCATT	-0.0553	0.0516	-0.249	-1.76	-0.128	-0.888	-0.875	-0.121	-0.0411
CTGCAGC	-0.0505	-0.117	-0.407	-0.532	0.104	-1.24	0.072	0.00377	-0.136
ATATATT	-3.62	-3.12	-3.47	-3.62	-0.493	-2.6	-3.89	0.0325	-3.55
TGTCAAG	0.000405	-0.0316	-0.566	-0.642	-0.0334	-1.12	0.187	0.0751	0.0623
AGTTCCA	-0.0302	-0.00997	0.173	-0.229	-0.0918	0.25	-0.506	0.0401	-0.00695
CGCCAAT	-0.211	-0.187	-0.18	-0.455	-0.202	-0.413	-0.616	-0.159	-0.139
AACCCGA	-0.0383	-0.11	0.127	0.194	0.0214	-0.595	-0.266	-0.152	-0.0458
GAAACAG	0.0129	0.109	0.16	0.358	0.0695	-0.242	0.191	0.0794	0.124
TGATGGC	0.036	0.00708	-0.111	-0.304	0.0288	-0.851	0.0701	0.0509	-0.0142
TAAACTC	-0.023	-0.0497	-3.58	-3.15	-0.0108	-1.94	-0.0428	-0.14	-3.36
TTCCACA	0.0984	0.0639	0.274	-0.855	-0.0318	0.405	0.0386	0.104	0.0783
GATATTG	-0.000408	-0.101	-0.172	0.00158	0.0622	-0.676	0.105	-0.0435	-0.0564
GCAGAAG	-0.0578	0.0505	-0.737	-0.475	-0.0552	-0.942	0.153	0.048	-0.0254
